# From paper PMC6919601, “Identification of Plasmodium dipeptidyl aminopeptidase allosteric inhibitors by high throughput screening” (PLoS ONE, 2019)
# Values joined by “and” are separate entries in the source; they are usually repeats but may differ in a detail not shown here. Equal values may be shown once. Screen size: about 110,000 compounds; about 230 (0.21%) showed an effect of 50% or more. This is one part of the list.
# Biological target: DPAP1 (Plasmodium falciparum, UniProt Q8IIJ9)
# Assay: primary screen, percent inhibition; read by cleavage of a fluorogenic dipeptide substrate; higher = more effect of the substance
# Parameters: species or system P. falciparum D10 trophozoite lysates; single well
# 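Further: 30 min substrate incubation versus DMSO and 10 µM JCP410 controls.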
# Sequence of DPAP1 (Q8IIJ9 whole entry, looked up): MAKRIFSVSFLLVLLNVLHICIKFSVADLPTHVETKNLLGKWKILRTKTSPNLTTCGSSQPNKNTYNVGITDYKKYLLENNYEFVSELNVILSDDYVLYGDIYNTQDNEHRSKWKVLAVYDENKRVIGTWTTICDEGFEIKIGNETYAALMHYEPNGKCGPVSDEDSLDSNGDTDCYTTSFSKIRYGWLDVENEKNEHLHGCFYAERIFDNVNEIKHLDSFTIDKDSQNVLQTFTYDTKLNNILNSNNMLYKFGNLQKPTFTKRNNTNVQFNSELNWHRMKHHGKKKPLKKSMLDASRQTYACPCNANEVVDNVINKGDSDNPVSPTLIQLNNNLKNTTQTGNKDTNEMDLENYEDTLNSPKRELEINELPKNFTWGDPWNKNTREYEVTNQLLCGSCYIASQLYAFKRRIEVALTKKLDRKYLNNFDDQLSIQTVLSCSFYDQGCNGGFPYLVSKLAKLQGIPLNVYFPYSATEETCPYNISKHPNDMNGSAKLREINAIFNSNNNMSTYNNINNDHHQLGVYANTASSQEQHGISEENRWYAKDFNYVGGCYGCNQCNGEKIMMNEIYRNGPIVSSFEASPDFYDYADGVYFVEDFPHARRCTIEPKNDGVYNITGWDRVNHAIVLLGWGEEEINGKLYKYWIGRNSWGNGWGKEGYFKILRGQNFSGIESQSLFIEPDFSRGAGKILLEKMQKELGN
row,Compound,% Inhibition @ 10 uM
1,CCOC(=O)/C(C#N)=C\c1cccc([N+](=O)[O-])c1,4.3%
2,C=CCOC(=O)C1=C(C)NC(=O)NC1c1ccc(Cl)c(Cl)c1 (stereo not shown),-5.2%
3,CCN(CC)c1nc2c(S(=O)(=O)c3ccc(C)c(C)c3)nnn2c2ccsc12,4.06%
4,Cc1cccc(C(=O)Nc2ccccc2)c1,-2.51%
5,Cc1cc(C)cc(NS(=O)(=O)c2ccc(NC(=O)COc3ccccc3C)cc2)c1,-4.7%
6,COc1cc(-n2nnnc2SCC(=O)NCc2ccccc2)c(OC)cc1Cl,0.9%
7,O=C1c2ccccc2C(=O)N1CC1c2ccccc2CCN1C(=O)CN1CCOCC1 (stereo not shown),5.98%
8,Cc1cc(C)cc(NC(=O)COc2ccccc2)c1,1.35%
9,O=C(c1ccc(Cl)cc1Cl)N1CCN(Cc2ccc3c(c2)OCO3)CC1,-8.28%
10,Cc1ccc(CNC(=O)c2noc3c2COc2ccccc2-3)cc1,72.8%
11,Cc1cc(C)nc(NC(=O)COc2ccc(C(C)C)cc2)n1,4.18%
12,Cc1ccccc1NC(=O)C1CC=CCC1C(=O)NCc1ccccc1 (stereo not shown),-5.47%
13,CCOC(=O)c1cc(O)c2c(n1)c(C)cc1c(C)c(C)[nH]c12,2.73%
14,COc1ccccc1C(=O)Nc1cccc(-c2nc3cc(C)ccc3o2)c1C,1.41%
15,O=C(c1cc2ccccc2oc1=O)N(Cc1cccs1)C1CCS(=O)(=O)C1 (stereo not shown),1.89%
16,Cc1cc(CO)sc1C,-0.999%
17,Cc1ccc(-c2cnnc(-c3ccc(Cl)cc3)n2)cc1,-4.75%
18,COCCNC(=O)c1[nH]c2cc(OC)ccc2c1Sc1ccc(Cl)cc1,-1.97%
19,O=C(O)c1ccc(NC(=O)c2ccc(Cl)cc2Cl)cc1,2.22%
20,Cc1c(Cl)cccc1-n1ncc(C(=O)N2CCCC2)c1C1CCN(C(=O)OC(C)(C)C)CC1,-0.707%
21,CCN(c1ccccc1)S(=O)(=O)c1ccc(NC(=O)c2ccc(OC)cc2)cc1,-3.72%
22,Cc1nc2nc(-c3ccc(Cl)cc3Cl)nn2c(C)c1CCC(=O)NCCCOC(C)C,-0.72%
23,Brc1ccccc1OCCCCCN1CCOCC1,4.6%
24,c1ccc(-c2cn3c4ccccc4n(CCN4CCCCC4)c3n2)cc1,1.27%
25,CSC1=NC2(C[C@H]2c2ccccc2)C(=O)N1C (stereo partly shown),-0.988%

row,Compound,% Inhibition @ 10 uM
1,O=C(COc1ccc(Cl)cc1)NCc1nnc(SCC(=O)c2ccccc2)o1,-1.58%
2,CCOC(=O)c1c(C)c(C(=O)NCCN2CCOCC2)c(C)n1C,4.88%
3,CCOC(=O)c1c(NC(=O)c2cc(-c3ccccc3O)on2)sc(C)c1C,3.55%
4,Cc1ccnc(SCCn2c(N3CCC(C(N)=O)CC3)nc3c2c(=O)n(C)c(=O)n3C)n1,2.41%
5,Cc1ccc(OCCCN2CCCCC2)c(C)c1,-14.1%
6,CCN1CCN(C/C=C/c2ccccc2OC)CC1,-2.34%
7,COc1ccccc1N(CN1C(=O)CCC1=O)C(C)=O,2.92%
8,Cc1cc(S(=O)(=O)N2CCN=C2c2ccccc2)ccc1F,-3.5%
9,CN(CC(CC(=O)Nc1nncs1)c1ccccc1)S(=O)(=O)c1ccc(Br)cc1 (stereo not shown),-6.66%
10,O=C(c1ccco1)N1CCN(S(=O)(=O)c2ccc(F)cc2)CC1,-5.03%
11,COc1ccc(CCNC(=O)CN2C(=O)CSc3nc(C)cc(C)c32)cc1OC,-0.637%
12,Oc1cccc2ccc(/C=C/c3cc4c(cc3Br)OCO4)nc12,4.18%
13,Cc1ccc(CNC(=O)Cc2csc3ccccc23)o1,1.63%
14,O=C(O)Cn1c2ccccc2c2nnc(SCc3ccccc3F)nc21,2.18%
15,CCCCN(CCCn1cnc2c3ccc(OC)cc3nc-2c1O)Cc1ccccc1,-0.0235%
16,Cc1ccc(NC(=O)CN(c2ccc(Cl)cc2)S(C)(=O)=O)cc1,-2.44%
17,O=C(c1cc2ccc3cccnc3c2[nH]1)N1CCN(C2CCCCC2)CC1,10.6%
18,COc1ccccc1NC(=O)C1=C(C)N=C2CC(C)(C)CC(O)=C2C1c1cccc(Cl)c1 (stereo not shown),-1.08%
19,Cc1ccc2c(c1)c1c3c(nccn32)CCC1,6.08%
20,CCCCOc1ccc(C(=O)CCN2CCOCC2)cc1,-7.08%
21,COc1ccc(C2C(C(=O)N3CCC(Cc4ccccc4)CC3)c3ccccc3C(=O)N2C)cc1 (stereo not shown),5.11%
22,COc1ccc(C/N=C/c2c(NCc3ccc(OC)cc3)nc3c(C)cccn3c2=O)cc1,-3.63%
23,COC(=O)c1ccc(C2c3c(oc4cc(C)c(C)cc4c3=O)C(=O)N2c2ccc(C)cn2)cc1 (stereo not shown),-1.33%
24,COc1ccc2c(CNCc3cccc(OC)c3OC)c(C(=O)O)n(Cc3ccc(F)cc3)c2c1,3.12%
25,COC(=O)c1ccc(/C=C2/NC(=O)N(Cc3ccc(Br)cc3)C2=O)cc1,1.52%

row,Compound,% Inhibition @ 10 uM
1,C=CC1CN2CCC1CC2[C@@H](OC(=O)c1ccc(OC)cc1)c1ccnc2ccccc12 (stereo partly shown),-1.86%
2,Cc1ccc(CNC(=O)CCCn2c(=O)c3cccn3c3cccnc32)cc1,6.89%
3,CC1=C(C(=O)OC2CCCC2)C(c2cc3c(cc2Br)OCO3)NC(=O)N1 (stereo not shown),5.69%
4,Cc1c(C#N)c2ccccc2n1CC(=O)NCc1cccnc1,0.726%
5,CC(CCc1ccc(O)cc1)N1CCN(c2ccccn2)CC1 (stereo not shown),5.03%
6,COc1ccc(CNCc2ccccc2OC)c(OC)c1,-2.87%
7,O=C(NCC1c2ccccc2CCN1C(=O)C1CCCCC1)C1CCCCC1 (stereo not shown),-5.47%
8,CCOc1ccccc1N1CCN(Cc2ccc(O)cc2)CC1,-3.77%
9,CCC1CCC(N2CCN(c3cccc(Cl)c3)CC2)CC1 (stereo not shown),-0.446%
10,Cc1nn(C)c(C)c1N1C(=O)c2cccc3c(N)ccc(c23)C1=O,-15.1%
11,CC(O)CN1C(=O)C(O)=C(C(=O)c2ccccc2)C1c1cccnc1 (stereo not shown),-3.97%
12,Cc1ccc(-c2nc(C(=O)N3CCN(c4ncccn4)CC3)c3n2CCCCC3)cc1,-4.99%
13,O=C(NCc1ccco1)c1nc(Cn2c(C(F)(F)F)nc3ccccc32)no1,1.76%
14,Cc1ccc2oc(=O)c3cc(C(=O)NCC4CCCO4)sc3c2c1 (stereo not shown),-2.14%
15,O=C(NCCc1ccccc1)c1nn2c(c1Cl)NC(c1cccs1)CC2C(F)(F)F (stereo not shown),7.93%
16,CCOC(=O)C1=C(NC(=O)CSc2nnnn2-c2ccccc2)SC2CN(C)CCC12 (stereo not shown),-6.94%
17,C=CCN1C(=O)C(CC(=O)Nc2cc(C)ccc2OC)S/C1=N\c1ccccc1 (stereo not shown),-0.173%
18,CCOc1ccc2[nH]c(SCC)nc2c1,-0.341%
19,O=C(CCC1CCCCC1)NC1(C(F)(F)F)NC(=O)N(Cc2cccnc2)C1=O (stereo not shown),-0.132%
20,CCc1ccc(N2CC(C(=O)Nc3ccccc3C(F)(F)F)CC2=O)cc1 (stereo not shown),2.79%
21,CC1CCCCC1NC(=O)CCN1N=C(c2ccccc2)CCC1=O (stereo not shown),2.35%
22,CC(C)(C)NC(=O)CCn1nc(-c2ccc(Cl)cc2)ccc1=O,-3.58%
23,COc1cc(OC)cc(-c2nc3nc(C)c(CCC(=O)NCCc4ccc(Cl)cc4)c(C)n3n2)c1,-6.03%
24,Cc1oc2cc3oc(=O)c(CC(=O)N4CCCC4)c(C)c3cc2c1-c1ccccc1,0.895%
25,O=C(Cn1ncn2cccc2c1=O)NCc1cccc(Cl)c1,-3.6%

row,Compound,% Inhibition @ 10 uM
1,CCC(=O)Nc1sc2c(c1C(=O)Nc1ccc(C)cc1)CCC2,0.13%
2,COc1ccc(CNC(=O)CCCn2ncn3c(cc4occc43)c2=O)cc1OC,-2%
3,CCNC(=O)c1cc(-c2ccccc2)nc2ccccc12,0.205%
4,Cc1ccc(N2CCN(C(=O)c3ccccc3)CC2)cc1Cl,0.528%
5,COC(=O)NCCC(c1ccccc1)c1ccccc1,0.13%
6,CCOc1ccc(-c2csc(/C(C#N)=C/c3cccc4ccccc34)n2)cc1,-2.42%
7,CCOc1ccc(CNCc2c(C(=O)O)c(C)n(Cc3ccccc3F)c2C)cc1OC,2.8%
8,Cc1ccc(OCC(=O)n2nc(C)cc2C)c(Br)c1,-5.14%
9,Cc1ccc(C)c(-n2c(C)cc(/C=C3/C(=N)N4C=CSC4=NC3=O)c2C)c1,3.87%
10,O=c1ccc(-c2ccccc2)nn1Cc1ccc(F)cc1,-0.946%
11,CCCCCN1C(C(=O)c2ccccc2)=C(OC(=O)c2ccco2)c2ccccc2S1(=O)=O,-2.71%
12,O=C(Cn1ncc2c3ccccc3n(Cc3ccccc3F)c2c1=O)NCCCN1CCCC1=O,-3.58%
13,O=C(O)Cn1nc(-c2ccccc2)cc1-c1ccccc1,-5.43%
14,CC(C)(C)c1ccc(OCc2ccc(C(=O)N3CCN(C(=O)c4ccco4)CC3)cc2)cc1,-0.519% and -0.725%
15,Cc1cccc(C)c1NC(=O)CSc1ncn(-c2ccccc2)n1,-3.78%
16,Cc1cc(C)nc(-n2cc3c(=O)[nH]c(=S)[nH]c3n2)n1,-3.33%
17,COc1cccc(-n2nnc3c(=O)n(Cc4cccc(C)c4)cnc32)c1,-3.94%
18,Cc1ccc(-n2c(S)nnc2CN2CCN(C)CC2)cc1Cl,-2.42%
19,O=C(Cc1coc(-c2ccc(F)cc2)n1)N1CCOCC1,4.4%
20,NC(=O)C1C(=O)NC(c2ccccc2)=CC1c1ccc(Cl)cc1 (stereo not shown),-3.22%
21,O=C1CCCc2c1nc(-c1cccc(Cl)c1)n2O,3.48%
22,CCOc1ccc(CCNC(=O)c2cc3c(s2)-c2ccccc2S(=O)(=O)C3)cc1,0.953%
23,NC(=O)c1cccc(NC(=O)c2ccccc2)c1,5.29%
24,CC1CCC(N2CCN(CCO)CC2)CC1 (stereo not shown),-5.44%
25,N#CCNC(=O)C(Cc1ccccc1)NC(=O)c1cnccn1 (stereo not shown),-3.14%
